Consider three molecules from US20200062840A1 (KINDRED BIOSCIENCES, published 2020).

The target of assay [1] is T1, pGEX_GST-IL31. P12-E21*(clone 24-7).
T1 sequence (GST fusion protein): PSDVRKIILE
Kind of assay: immunoblot of GST-IL31 epitope fragment fusions with alanine mutations, probed with caninized M14; anti-GST bands in all lanes of the bottom panel.

In assay [2] the target is T2, GST_IL31.P12-E21.I19A (#79.1, #79.7).
T2 sequence (GST fusion protein): PSDVRKIALE
Described as above.

Assay [3] addresses T3, GST_IL31.P12-E21.L20A (#77.3, #77.5).
T3 sequence (GST fusion protein): PSDVRKIIAE
Described as above.

In assay [4] the target is T1, pGEX_GST-IL31. P12-E21*(clone 24-7). Kind of assay: immunoblot of GST-IL31 epitope fragment fusions with alanine mutations, probed with hybridoma M14; anti-GST signal in all lanes of the bottom panel. For orientation: In western blotting, separated proteins are transferred to a membrane and probed.
Assay [5] concerns the target T2, GST_IL31.P12-E21.I19A (#79.1, #79.7). Described as above.
Assay [6] deals with T3, GST_IL31.P12-E21.L20A (#77.3, #77.5). The description is as above.
Assay [7] deals with T4, GST canine IL31 fragment fusion carrying the minimal fragment (SEQ ID NO: 23) (canine).
T4 sequence: PSDVRKIILELQPLSRG
Kind of assay: immunoblot of GST canine IL31 fragment fusions probed with chimeric M14.

The target of the next assay is T5, GST_(A127-Q159).
T5 sequence (GST fusion protein): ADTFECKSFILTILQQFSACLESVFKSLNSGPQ
The experiment in a line: immunoblot of GST-canine IL31 fusion from E. coli, membrane probed with chimeric M14.

The target of the next assay is T6, GST_(S98-S144).
T6 sequence (GST fusion protein): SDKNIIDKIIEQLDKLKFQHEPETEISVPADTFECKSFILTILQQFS
The description is as above.

The next assay deals with T7, GST-IL31(P34-K58*).
T7 sequence (GST fusion protein): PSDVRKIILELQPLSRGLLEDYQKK
Kind of assay: immunoblot of GST-canine IL31 fusion from E. coli, membrane probed with chimeric M14; anti-GST band in FIG 6B lane 4.

The target in a further assay is T8, GST-IL31(P34-K58*).E43A.
T8 sequence (GST fusion protein): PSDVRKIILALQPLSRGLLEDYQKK
Kind of assay: immunoblot of GST-canine IL31 fusion from E. coli, membrane probed with chimeric M14; anti-GST band in FIG 6B lane 5.

These are yes or no findings as the source states them, for the method shown. Some results given as binding are weak or reduced against the parent protein; the word gives no strength. Where a sequence is shown, tags or fusion partners need not be part of it.

B1: caninized M14 IgG-B (antibody, V domains shown)
VH: EVQLVESGPSLVKPGGSLRLTCSVTGDSITSGYWNWIRKFPGNKLEYMGYISYSGITDYNPSLKSRITISRDTSKNQYYLQLNSVTTEDTATYYCARYGNYGYAMDYWGQGTLVTVSS
VL: DIVMTQSPASLSVSLGQRATISCRASESVDTYGNSFMHWYQQKPGQSPKLLIYRASNLESGIPARFGGSGSGTDFTLTIDPVQADDVATYYCQQSYEDPWTFGGGTKLEIKR
notes: canine IgG-B heavy chain and canine light chain constant region; also called caninized M14 antibody
B1: the binding entry in [1], in [2] and in [3] was “binds” throughout.

B2: mouse monoclonal antibody M14 (antibody, V domains shown)
VH: EVQLQESGPSLVKPSQTLSLTCSVTGDSITSGYWNWIRKFPGNKLEYMGYISYSGITDYNPSLKSRISITRDTSKNQYYLQLNSVTTEDTATYYCARYGNYGYAMDYWGQGTSVTVSS
VL: DIVLTQSPASLAVSLGQRATISCRASESVDTYGNSFMHWYQQKSGQSPKLLIYRASNLESGIPARFGGSGSRTDFTLTIDPVEADDVATYYCQQSYEDPWTFGGGTKLEIK
Consider B2, for which the binding result in [4], in [5] and in assay [6] was “binds” in each case.

B3: chimeric M14 (murine M14 VH and VL fused to canine IgG-B constant heavy chain and canine constant light chain) (antibody, V domains shown)
VH: EVQLQESGPSLVKPSQTLSLTCSVTGDSITSGYWNWIRKFPGNKLEYMGYISYSGITDYNPSLKSRISITRDTSKNQYYLQLNSVTTEDTATYYCARYGNYGYAMDYWGQGTSVTVSS
VL: DIVLTQSPASLAVSLGQRATISCRASESVDTYGNSFMHWYQQKSGQSPKLLIYRASNLESGIPARFGGSGSRTDFTLTIDPVEADDVATYYCQQSYEDPWTFGGGTKLEIKR
B3: the binding result is given as “binds” in [7]; “no binding” with GST_(A127-Q159); “no binding” with GST_(S98-S144); “binds” with GST-IL31(P34-K58*); “binds” with GST-IL31(P34-K58*).E43A.
